These results are taken from the antibiotic and cytotoxicity screens of Wong et al. (2023).

The structures appear in SMILES notation. The list shows a part of the results.

One test has as its system HSkMC. Description: cytotoxicity call (relative viability < 0.9). As to conditions: 10 µM.
The test system of a further test is HepG2. Description: cytotoxicity call (relative viability < 0.9). The note with it: 10 µM.
In the next test the test system is S. aureus RN4220. Description: growth inhibition call (relative growth <= 0.2). As to conditions: 50 µM.

`C[C@@H]1CCCCO[C@H](CN(C)S(=O)(=O)c2cn(C)cn2)[C@@H](C)CN([C@H](C)CO)C(=O)c2cc(NC(=O)CCCN(C)C)ccc2O1`: the cytotoxicity call in the test with HSkMC and in the test with HepG2 was “inactive” throughout. Moreover, the growth inhibition call with S. aureus RN4220 was “inactive”.

As for `COCC(=O)N1[C@@H]2c3ccc(C4=CCCCC4)c(=O)n3C[C@@H]2[C@@H](CO)[C@@H]1C(=O)N1CCOCC1`, the cytotoxicity call in the test with HSkMC and in the test with HepG2 was “inactive” in each case. In addition, the growth inhibition call in the test on S. aureus RN4220 is “inactive”.

On to `CC(C)c1nc(CN(C)C(=O)NC(C(=O)NC(Cc2ccccc2)CC(O)C(Cc2ccccc2)NC(=O)OCc2cncs2)C(C)C)cs1` (configuration not stated), for which the cytotoxicity call in the test with HSkMC and with HepG2 was “inactive” each time. For the same compound, the growth inhibition call with S. aureus RN4220 was “inactive”.

For `COCCNC(=O)C[C@@H]1CC[C@@H]2[C@H](COC[C@@H](O)CN2S(=O)(=O)c2ccccc2C)O1`, the cytotoxicity call with HSkMC and in the test with HepG2 was “inactive” in each case. The growth inhibition call with S. aureus RN4220 is “inactive”.

Regarding `O=C(c1ccncc1)N1C[C@H]2[C@@H](c3ccccc31)[C@H](CO)N2C(=O)CN1CCOCC1`, the cytotoxicity call in the test with HSkMC and in the test with HepG2 was “inactive” in each case. Further, in the test with S. aureus RN4220, the growth inhibition call was “inactive”.

As to `C[C@H]1CN([C@@H](C)CO)C(=O)c2cc(NS(=O)(=O)c3ccc(F)cc3)ccc2O[C@@H]1CN(C)S(=O)(=O)c1cn(C)cn1`, the cytotoxicity call in the test with HSkMC and with HepG2 was “inactive” each time. Besides, the growth inhibition call in the test with S. aureus RN4220 was “inactive”.

In the case of `C[C@H]1CN([C@@H](C)CO)S(=O)(=O)c2ccc(-c3cncnc3)cc2O[C@@H]1CN(C)C(=O)C1CCCCC1`, the cytotoxicity call with HSkMC and with HepG2 was “inactive” throughout. Also, the growth inhibition call in the test on S. aureus RN4220 is “inactive”.

For `C[C@@H]1CCCCO[C@@H](CN(C)Cc2ccc(Cl)c(Cl)c2)[C@H](C)CN([C@@H](C)CO)C(=O)c2cc(NS(=O)(=O)c3cn(C)cn3)ccc2O1`, the cytotoxicity call in the test on HSkMC and with HepG2 was “inactive” each time. Moreover, the growth inhibition call with S. aureus RN4220 is “inactive”.

As for `O=C(CCc1ccc(O)cc1)c1c(O)cc(O)cc1OC1OC(CO)C(O)C(O)C1O` (configuration not stated), the cytotoxicity call in the test with HSkMC and with HepG2 was “inactive” throughout. Also, the growth inhibition call in the test with S. aureus RN4220 is “inactive”.

Take `COc1ccc(NC(=O)Nc2cccc3c2O[C@H](CN(C)C(=O)Nc2cccc4ccccc24)[C@H](C)CN([C@H](C)CO)C3=O)cc1`: the cytotoxicity call with HSkMC is “inactive”. The cytotoxicity call with HepG2 was “active”. The growth inhibition call in the test on S. aureus RN4220 was “inactive”.

For `COCC(=O)N1C[C@H](C)[C@H](OC)CN(C)C(=O)c2ccc(NC(=O)Nc3ccccc3)cc2OC[C@@H]1C`, the cytotoxicity call with HSkMC and in the test on HepG2 was “inactive” in each case. The growth inhibition call in the test with S. aureus RN4220 is “inactive”.

Regarding `COc1cccc(S(=O)(=O)N[C@@H]2C=C[C@@H](CC(=O)NC3CCC3)O[C@@H]2CO)c1`, the cytotoxicity call in the test with HSkMC and in the test on HepG2 was “inactive” each time. Besides, the growth inhibition call with S. aureus RN4220 is “inactive”.

For the compound `C[C@H](CO)N1C[C@H](C)[C@@H](CN(C)Cc2ccc(Oc3ccccc3)cc2)Oc2ccc(NC(=O)CCCN(C)C)cc2CC1=O`, the cytotoxicity call in the test with HSkMC and in the test with HepG2 was “inactive” in each case. Moreover, the growth inhibition call in the test with S. aureus RN4220 is “inactive”.

Regarding `COc1ccc(S(=O)(=O)N(C)C[C@H]2Oc3cc(C4=CCCC4)ccc3S(=O)(=O)N([C@@H](C)CO)C[C@@H]2C)cc1`, the cytotoxicity call in the test on HSkMC and in the test on HepG2 was “inactive” in each case. The growth inhibition call with S. aureus RN4220 is “inactive”.

Turning to `O=C(C[C@@H]1C[C@@H]2c3cc(NC(=O)Cc4ccncc4)ccc3O[C@@H]2[C@@H](CO)O1)NCCc1ccccc1`, the cytotoxicity call in the test with HSkMC and in the test on HepG2 was “inactive” throughout. In addition, in the test on S. aureus RN4220, the growth inhibition call was “inactive”.

Regarding `C[C@@H]1CN([C@H](C)CO)C(=O)c2cc(NC(=O)Cc3ccccc3)ccc2O[C@@H]1CN(C)Cc1ccc(-c2ccccc2)cc1`, the cytotoxicity call in the test with HSkMC and in the test on HepG2 was “inactive” each time. In addition, in the test with S. aureus RN4220, the growth inhibition call is “inactive”.

For the compound `C[C@@H]1CN([C@@H](C)CO)C(=O)Cc2cc(NC(=O)Nc3cccc4ccccc34)ccc2O[C@H]1CN(C)C(=O)Nc1ccc(F)cc1`, the cytotoxicity call in the test on HSkMC and with HepG2 was “inactive” throughout. In the test with S. aureus RN4220, the growth inhibition call was “inactive”.

As for `C[C@@H]1C[C@H](C)CN(S(=O)(=O)N2CCC[C@H](C(=O)NCCN3CCOCC3)C2)C1`, the cytotoxicity call in the test on HSkMC and in the test with HepG2 was “inactive” throughout. Also, the growth inhibition call in the test on S. aureus RN4220 was “inactive”.

Consider `C[C@@H]1CN([C@H](C)CO)C(=O)c2cccc(NC(=O)Nc3ccc(C(F)(F)F)cc3)c2O[C@@H]1CN(C)Cc1ccccc1`, for which the cytotoxicity call in the test with HSkMC and in the test with HepG2 was “inactive” in each case. Further, in the test on S. aureus RN4220, the growth inhibition call is “inactive”.

Regarding `COc1ccc(S(=O)(=O)N(C)C[C@H]2Oc3c(NS(=O)(=O)c4ccc(C)cc4)cccc3C(=O)N([C@H](C)CO)C[C@@H]2C)cc1`, the cytotoxicity call in the test on HSkMC and in the test with HepG2 was “inactive” each time. Moreover, in the test with S. aureus RN4220, the growth inhibition call was “inactive”.

With `O=C(C[C@@H]1CC=CC[C@H](NC(=O)OCC2c3ccccc3-c3ccccc32)C(=O)O[C@H](c2ccccc2)CNC1=O)N[C@@H](CO)Cc1ccccc1`, the cytotoxicity call in the test on HSkMC is “active”. Also, the cytotoxicity call with HepG2 is “inactive”. In the test with S. aureus RN4220, the growth inhibition call is “inactive”.

Turning to `COc1ccccc1CNC(=O)C[C@H]1C[C@H]2c3cc(NC(=O)c4cccnc4)ccc3O[C@H]2[C@H](CO)O1`, the cytotoxicity call in the test on HSkMC and in the test with HepG2 was “inactive” each time. In the test with S. aureus RN4220, the growth inhibition call is “inactive”.

In the case of `CCS(=O)(=O)Nc1ccc2c(c1)C(=O)N(C)C[C@H](OC)[C@@H](C)CN(C(=O)c1ccc3c(c1)OCO3)[C@H](C)CO2`, the cytotoxicity call with HSkMC and in the test on HepG2 was “inactive” in each case. The growth inhibition call in the test on S. aureus RN4220 was “inactive”.

On to `CO[C@@H]1CN(C)C(=O)c2ccc(NC(=O)C3CC3)cc2OC[C@H](C)N(C(=O)C2CCOCC2)C[C@@H]1C`, for which the cytotoxicity call in the test with HSkMC and in the test on HepG2 was “inactive” each time. Besides, the growth inhibition call in the test with S. aureus RN4220 was “inactive”.

As for `C[C@H]1O[C@@H](OC[C@H]2O[C@@H](O[C@H]3CC[C@]4(C)[C@H]5CCC6=C(CC[C@@]7(C(=O)O[C@@H]8O[C@H](CO)[C@@H](O)[C@H](O)[C@H]8O[C@@H]8O[C@H](CO)[C@@H](O)[C@H](O)[C@H]8O)CCC(C)(C)C[C@@H]67)[C@]5(C)CC[C@H]4C3(C)C)[C@H](O)[C@@H](O)[C@@H]2O)[C@H](O)[C@@H](O)[C@@H]1O`, the cytotoxicity call in the test with HSkMC and with HepG2 was “inactive” in each case. The growth inhibition call with S. aureus RN4220 was “inactive”.

For the compound `C[C@H](CO)N1C[C@H](C)[C@H](CN(C)Cc2ccc(C(=O)O)cc2)OCCCC[C@H](C)Oc2ccc(NC(=O)Nc3ccc(C(F)(F)F)cc3)cc2C1=O`, the cytotoxicity call in the test on HSkMC and with HepG2 was “inactive” throughout. In the test with S. aureus RN4220, the growth inhibition call was “inactive”.

Take `Cc1noc(C)c1NC(=O)N(C)C[C@H]1OCCCC[C@H](C)Oc2ccc(NS(=O)(=O)c3ccc(Cl)cc3)cc2C(=O)N([C@H](C)CO)C[C@@H]1C`: the cytotoxicity call with HSkMC and with HepG2 was “inactive” throughout. Besides, the growth inhibition call in the test on S. aureus RN4220 was “inactive”.

As to `COc1ccc(NC(=O)Nc2ccc3c(c2)C(=O)N([C@H](C)CO)C[C@@H](C)[C@H](CN(C)S(=O)(=O)c2ccc(C)cc2)OCCCC[C@H](C)O3)cc1`, the cytotoxicity call with HSkMC was “inactive”. Also, the cytotoxicity call in the test on HepG2 is “active”. In the test on S. aureus RN4220, the growth inhibition call was “inactive”.

Regarding `C[C@H]1CN([C@@H](C)CO)C(=O)c2cc(-c3ccc(C(=O)N(C)C)cc3)cnc2O[C@@H]1CN(C)C(=O)c1ccncc1`, the cytotoxicity call with HSkMC and in the test on HepG2 was “inactive” throughout. For the same compound, the growth inhibition call with S. aureus RN4220 was “inactive”.

In the case of `c1coc(CNc2nc[n+]3c4c2ncn4CC3)c1`, the cytotoxicity call in the test on HSkMC and in the test with HepG2 was “inactive” in each case. Further, the growth inhibition call in the test with S. aureus RN4220 is “inactive”.

Turning to `COc1ccc2c3c(n(c2c1)C)[C@H](CO)N(C[C@]13CN(C1)C(=O)CN(C)C)C(=O)CN(C)C`, the cytotoxicity call with HSkMC and with HepG2 was “inactive” each time. Further, in the test on S. aureus RN4220, the growth inhibition call is “inactive”.

For `C[C@H]1CN([C@@H](C)CO)C(=O)CCCn2nncc2CO[C@H]1CN(C)S(=O)(=O)c1ccccc1C#N`, the cytotoxicity call in the test with HSkMC and in the test with HepG2 was “inactive” each time. For the same compound, the growth inhibition call in the test on S. aureus RN4220 is “inactive”.

Consider `C[C@@H]1CN([C@H](C)CO)C(=O)c2cc(NS(C)(=O)=O)ccc2O[C@@H](C)CCCCO[C@H]1CN(C)Cc1ccc(C(F)(F)F)cc1`, for which the cytotoxicity call with HSkMC and with HepG2 was “inactive” throughout. Besides, in the test with S. aureus RN4220, the growth inhibition call is “inactive”.

For the compound `COCCCNC(=O)[C@@]1(Cc2ccccc2N=[N+]=[N-])N=C(c2ccc(OCCCO)cc2)O[C@H]1c1ccccc1`, the cytotoxicity call in the test on HSkMC and in the test with HepG2 was “inactive” each time. Further, in the test on S. aureus RN4220, the growth inhibition call was “inactive”.

As to `C[C@H]1CN([C@@H](C)CO)C(=O)c2cccc(NC(=O)C3CCOCC3)c2O[C@@H]1CN(C)Cc1ccncc1`, the cytotoxicity call with HSkMC and with HepG2 was “inactive” throughout. The growth inhibition call in the test with S. aureus RN4220 was “inactive”.

Take `C[C@H]1CN([C@@H](C)CO)C(=O)c2cccc(NC(=O)Nc3ccc(F)cc3)c2O[C@@H]1CN(C)S(C)(=O)=O`: the cytotoxicity call with HSkMC and in the test on HepG2 was “inactive” in each case. Further, the growth inhibition call in the test with S. aureus RN4220 was “inactive”.

Regarding `COc1ccc(S(=O)(=O)Nc2ccc3c(c2)C(=O)N([C@@H](C)CO)C[C@@H](C)[C@H](CN(C)C(=O)Nc2ccc4c(c2)OCO4)OCCCC[C@@H](C)O3)cc1`, the cytotoxicity call with HSkMC and in the test on HepG2 was “inactive” throughout. Further, the growth inhibition call with S. aureus RN4220 is “inactive”.

With `CC1(C)[C@H]2C[C@@H](O[C@H]3O[C@@H](CO)[C@@H](O)[C@@H](O)[C@@H]3O)[C@@]1(C)C[C@@H]2O`, the cytotoxicity call in the test on HSkMC (human skeletal muscle cells) and with HepG2 was “inactive” in each case. The growth inhibition call in the test with S. aureus RN4220 is “inactive”.

`C[C@@H]1CN([C@@H](C)CO)C(=O)c2cc(-c3cccc(C#N)c3)cnc2O[C@H]1CN(C)C(=O)c1cnccn1`: the cytotoxicity call in the test with HSkMC and in the test on HepG2 was “inactive” throughout. Besides, the growth inhibition call in the test on S. aureus RN4220 was “inactive”.
